This note sets out measurements from PMC4336329 (PLoS ONE, 2015).

Structures are written as SMILES. Out of some 310,000 compounds screened, about 14,000 (4.5%) showed an effect of 50% or more. Effects have a minus sign here. This is one part of the list.
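Note: peak tail current of the secondary pulse compared with the same well before compound.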

The assay deals with human ether-à-go-go-related gene (hERG) potassium channel (human, UniProt Q12809). The experiment in a line: primary screen, population patch clamp on CHO cells stably expressing hERG.
Chain of human ether-à-go-go-related gene (hERG) potassium channel (Q12809 whole entry, looked up): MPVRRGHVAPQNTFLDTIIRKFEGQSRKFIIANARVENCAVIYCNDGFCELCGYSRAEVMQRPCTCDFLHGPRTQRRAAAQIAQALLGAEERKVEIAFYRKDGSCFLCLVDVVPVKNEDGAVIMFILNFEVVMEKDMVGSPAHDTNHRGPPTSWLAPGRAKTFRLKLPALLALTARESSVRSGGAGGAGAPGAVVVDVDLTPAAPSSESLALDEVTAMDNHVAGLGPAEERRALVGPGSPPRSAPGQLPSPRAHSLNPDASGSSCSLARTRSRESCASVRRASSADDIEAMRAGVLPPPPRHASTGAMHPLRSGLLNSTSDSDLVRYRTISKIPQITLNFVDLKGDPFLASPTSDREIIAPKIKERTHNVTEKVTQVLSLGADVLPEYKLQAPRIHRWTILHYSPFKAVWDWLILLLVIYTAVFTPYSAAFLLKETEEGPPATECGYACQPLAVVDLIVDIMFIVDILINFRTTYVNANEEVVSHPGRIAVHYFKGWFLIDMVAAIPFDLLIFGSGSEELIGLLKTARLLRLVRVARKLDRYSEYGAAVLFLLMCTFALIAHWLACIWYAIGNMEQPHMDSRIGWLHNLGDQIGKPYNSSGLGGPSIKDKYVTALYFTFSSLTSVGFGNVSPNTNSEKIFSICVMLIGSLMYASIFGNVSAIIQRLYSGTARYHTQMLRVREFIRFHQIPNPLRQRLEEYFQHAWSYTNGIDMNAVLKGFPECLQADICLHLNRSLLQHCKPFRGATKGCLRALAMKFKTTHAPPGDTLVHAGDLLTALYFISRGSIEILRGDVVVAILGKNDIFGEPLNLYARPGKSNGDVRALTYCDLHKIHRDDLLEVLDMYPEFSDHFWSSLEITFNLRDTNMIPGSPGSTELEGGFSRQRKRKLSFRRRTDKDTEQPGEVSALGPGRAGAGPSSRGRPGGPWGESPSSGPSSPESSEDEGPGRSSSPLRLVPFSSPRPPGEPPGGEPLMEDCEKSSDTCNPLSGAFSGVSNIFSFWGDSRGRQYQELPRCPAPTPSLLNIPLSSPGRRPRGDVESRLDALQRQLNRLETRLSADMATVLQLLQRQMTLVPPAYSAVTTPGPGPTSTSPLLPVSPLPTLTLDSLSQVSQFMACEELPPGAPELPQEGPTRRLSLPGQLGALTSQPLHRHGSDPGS
Take `Cc1nc(N2CCCCC2)sc1C=O`: the “hERG current change (%, negative = inhibition) at 10uM” value was 22.9%.

Consider `CCC(C(=O)OCC(=O)Nc1ccc(F)cc1)c1ccccc1` (stereo not shown), for which the “hERG current change (%, negative = inhibition) at 10uM” value is listed as -28.7%.

For `OCC1CCCCN1CCNCc1cn[nH]c1-c1cccc2ccccc12` (stereo not shown), the “hERG current change (%, negative = inhibition) at 10uM” value is given as -29.1%.

Regarding `C=CCn1c2ccccc2c2nnc(SCC(N)=O)nc21`, the “hERG current change (%, negative = inhibition) at 10uM” value is reported as 18.3%.

As for `Cc1cc(C)cc(-n2cccc2/C=C2/C(=N)N3C(=NC2=O)SN=C3S(C)(=O)=O)c1`, the “hERG current change (%, negative = inhibition) at 10uM” value is -12.6%.

As to `O=C(CSc1nccn1-c1ncc(C(F)(F)F)cc1Cl)c1ccc(Cl)cc1`, the “hERG current change (%, negative = inhibition) at 10uM” value is -1.36%.

In the case of `CCCC(=O)N(Cc1cc(=O)[nH]c2ccccc12)c1ccc(C)cc1C`, the “hERG current change (%, negative = inhibition) at 10uM” value is listed as -6.27%.

As for `CC(=O)Nc1cccc(Oc2nc(C(F)(F)F)nc3ccccc23)c1`, the “hERG current change (%, negative = inhibition) at 10uM” value is given as -6.7%.

With `COC(=O)C1=C(C)NC(C)=C(C(=O)OC)C1c1ccccc1OCc1c(C)no[n+]1[O-]`, the “hERG current change (%, negative = inhibition) at 10uM” value is listed as -22%.

Turning to `CC1CC(C)(C)NC(=S)N1CCCC(=O)Nc1ccc(F)cc1` (stereo not shown), the “hERG current change (%, negative = inhibition) at 10uM” value is reported as 18.3%.

As to `COc1cccc(-n2c(/C=C/c3ccccn3)nc3ccccc3c2=O)c1`, the “hERG current change (%, negative = inhibition) at 10uM” value was found to be 7.03%.

As to `Cc1ccc(NS(=O)(=O)c2ccc(C(=O)N3CC(C)OC(C)C3)cc2)cc1` (stereo not shown), the “hERG current change (%, negative = inhibition) at 10uM” value amounted to 14.2%.

Regarding `Cc1ccc(-n2ncc(C(=O)NCc3ccc4c(c3)OCO4)c2NC(=O)c2ccco2)cc1C`, the “hERG current change (%, negative = inhibition) at 10uM” value is -22.4%.

`CC(C)NC(=S)N/N=C/c1c[nH]c2ccccc12`: the “hERG current change (%, negative = inhibition) at 10uM” value was 2.04%.

As to `CCOC(=O)C1CCN(C(=O)CCNC(=O)c2cc(OC)c(OC)c(OC)c2)CC1`, the “hERG current change (%, negative = inhibition) at 10uM” value was 10.9%.

On to `Oc1ccc(/C(Cc2ccc3ccccc3n2)=N\Nc2ccccc2)c(O)c1`, for which the “hERG current change (%, negative = inhibition) at 10uM” value was 42%.

Turning to `O=C(Nc1ccc2nc3n(c(=O)c2c1)CCCCC3)c1ccccn1`, the “hERG current change (%, negative = inhibition) at 10uM” value is recorded as -21.2%.

With `Cc1cccc(NC(=O)Nc2ccc(OCc3ccccc3)cc2)n1`, the “hERG current change (%, negative = inhibition) at 10uM” value amounted to 21.3%.

On to `COc1ccc(S(=O)(=O)N2CCCC(C(=O)NCC3CCCO3)C2)cc1Cl` (stereo not shown), for which the “hERG current change (%, negative = inhibition) at 10uM” value turned out to be 0.933%.

Consider `Nc1nonc1-n1nnc(C(=O)N/N=C/c2ccc(F)cc2)c1-c1ccc2c(c1)OCO2`, for which the “hERG current change (%, negative = inhibition) at 10uM” value is 6.64%.

Consider `Cc1ccc(NCc2nnc(SCC(=O)c3ccccc3)n2Cc2ccco2)c(C)c1`, for which the “hERG current change (%, negative = inhibition) at 10uM” value is given as -7.53%.

For `Cc1c(Nc2nc(C(F)(F)F)nc3ccccc23)c(=O)n(-c2ccccc2)n1C`, the “hERG current change (%, negative = inhibition) at 10uM” value is listed as -1.37%.

Turning to `Cc1ccc2nc(Cl)c(/C=N/Nc3ccc(C(=O)O)cc3)cc2c1`, the “hERG current change (%, negative = inhibition) at 10uM” value turned out to be 8.21%.

Take `O=C(CSc1nc2c(c(=O)[nH]1)CN(Cc1ccc(F)cc1)CC2)Nc1ccc(F)cc1`: the “hERG current change (%, negative = inhibition) at 10uM” value is recorded as -22.6%.

Take `COc1ccc(C(=O)Nn2c(C)nc3ccccc3c2=O)cc1OC`: the “hERG current change (%, negative = inhibition) at 10uM” value was determined as 21.7%.

As for `CCC(C)NC(=O)c1ccc(CN2CCc3ccccc3C2)cc1` (stereo not shown), the “hERG current change (%, negative = inhibition) at 10uM” value is 0.0718%.

`Cc1nn(Cc2ccc(C(=O)O)o2)c(C)c1[N+](=O)[O-]`: the “hERG current change (%, negative = inhibition) at 10uM” value was 25.5%.

Turning to `O=C(NCC1CCCO1)/C(=C/c1ccccc1F)NC(=O)c1ccccc1` (stereo not shown), the “hERG current change (%, negative = inhibition) at 10uM” value is listed as -6.18%.

As to `CCOC(=O)CNC(=O)CSc1nnc(-c2ccc(OC)cc2)n1CC`, the “hERG current change (%, negative = inhibition) at 10uM” value was determined as 10.5%.

Turning to `Cn1nnnc1SCC(=O)N1CCN(c2ccccc2)CC1`, the “hERG current change (%, negative = inhibition) at 10uM” value is on record as 12.4%.

On to `O=C(Nc1ccccc1C(F)(F)F)c1ccc2nccnc2c1`, for which the “hERG current change (%, negative = inhibition) at 10uM” value is 12.9%.

As to `Cc1cccc(NC(=O)COC(=O)CNC(=O)C2CCCCC2)c1`, the “hERG current change (%, negative = inhibition) at 10uM” value was -3.71%.

For the compound `c1coc(CNc2ncnc3c2oc2ccccc23)c1`, the “hERG current change (%, negative = inhibition) at 10uM” value is reported as -22.1%.

Consider `Cc1cc(C)nc(NS(=O)(=O)c2ccc(N=Cc3c(C)[nH]n(-c4ccccc4)c3=O)cc2)n1`, for which the “hERG current change (%, negative = inhibition) at 10uM” value turned out to be 19%.

As to `S=C(NCCc1ccccc1)N1CCN(C23CC4CC(CC(C4)C2)C3)CC1`, the “hERG current change (%, negative = inhibition) at 10uM” value is -75.2%.

For the compound `S=C(Nc1cccc(Cl)c1)N(CCCN1CCCC1)Cc1cccn1Cc1ccc(Cl)cc1`, the “hERG current change (%, negative = inhibition) at 10uM” value is -22.7%.

Consider `Cc1ccc(-n2c(CCc3ccccc3)nnc2SCC(=O)NCc2ccccc2)cc1C`, for which the “hERG current change (%, negative = inhibition) at 10uM” value was determined as 5.97%.

Take `COc1cc(OC)cc(C(=O)NC(C(=O)O)C23CC4CC(CC(C4)C2)C3)c1` (stereo not shown): the “hERG current change (%, negative = inhibition) at 10uM” value turned out to be 14.3%.

Consider `C/C(=N\N1CCN(Cc2ccccc2)CC1)c1ccco1`, for which the “hERG current change (%, negative = inhibition) at 10uM” value was -1.45%.

As for `Cc1ccc(NC(=O)CCCOc2ccccc2)cc1S(=O)(=O)N1CCOCC1`, the “hERG current change (%, negative = inhibition) at 10uM” value is reported as -23.8%.

As to `COCCNC(=O)C1CCC(CNS(=O)(=O)c2ccc(F)cc2)CC1` (stereo not shown), the “hERG current change (%, negative = inhibition) at 10uM” value is reported as 17.3%.

For `COc1ccccc1NC(=S)N1CCC(C(=O)c2ccc(F)cc2)CC1`, the “hERG current change (%, negative = inhibition) at 10uM” value is -22.7%.

Take `O=C(C1CCCCC1)N1CCCC(c2nc(-c3ccc(F)cc3)no2)C1` (stereo not shown): the “hERG current change (%, negative = inhibition) at 10uM” value was determined as 9.78%.

As for `CCCCCn1c(=O)c(C(=O)NCCc2ccccc2)c(O)c2ccccc21`, the “hERG current change (%, negative = inhibition) at 10uM” value is 24.9%.

On to `O=C(Nc1nc2ccc([N+](=O)[O-])cc2s1)c1c(F)cccc1F`, for which the “hERG current change (%, negative = inhibition) at 10uM” value is -14.5%.

As to `C#CC[N+]1(CC#Cc2cccc(C)c2)CCCCC1.[Br-]`, the “hERG current change (%, negative = inhibition) at 10uM” value is reported as 5.18%.

On to `Cc1cccn2c(=O)c(C(=O)NC3CC(C)CC(C)(C)C3)c(O)nc12` (stereo not shown), for which the “hERG current change (%, negative = inhibition) at 10uM” value is -29.3%.

For `O=C(Cc1ccccc1)NNC(=S)NC(=O)c1cccs1`, the “hERG current change (%, negative = inhibition) at 10uM” value is 21.7%.

With `O=C(Cc1ccc(Cl)cc1)Nc1ccc(NC(=O)c2cccs2)cc1`, the “hERG current change (%, negative = inhibition) at 10uM” value is on record as -9.9%.

`CC1(C)CC(=O)C2=C(C1)Nc1ccccc1S2`: the “hERG current change (%, negative = inhibition) at 10uM” value turned out to be 13.4%.

As for `CCOc1ccc(NC(=O)N2CCC(NC(=O)C(Cc3cccc(F)c3)NC(C)=O)CC2)cc1` (stereo not shown), the “hERG current change (%, negative = inhibition) at 10uM” value is reported as 23.8%.

As to `COc1cc2c(cc1OC)CN(c1ccc(-c3ccccc3OC)nn1)CC2`, the “hERG current change (%, negative = inhibition) at 10uM” value was 0.648%.

`COc1ccc(N2CCN(C(CNC(=O)C(=O)NCC3CCCO3)c3ccco3)CC2)cc1` (stereo not shown): the “hERG current change (%, negative = inhibition) at 10uM” value is -2.53%.

As to `CCn1cc(C(=O)NCCCN2CCCC(C)C2)c(=O)c2cc(S(=O)(=O)N3CCc4ccccc4C3)ccc21` (stereo not shown), the “hERG current change (%, negative = inhibition) at 10uM” value is given as -75.7%.

For the compound `O=C(CN1CCC(n2nnc3cc(F)ccc32)CC1)NCCc1nc2ccccc2[nH]1`, the “hERG current change (%, negative = inhibition) at 10uM” value is -31.6%.
